Inconclusive results, whose numbers are uncertain, are shown with a selection of clear calls. A potency beside an inconclusive call is a rough fit, not a confirmed value. Calls of active or inactive are those of the source. The call rests on the fitted dose curve; in most records, active means well fitted inhibition curve with a large enough effect; inconclusive means small, poorly fitted or top-dose-only effect; inactive means no such curve, though single readings can be large or run the other way.
test: Confirmatory qHTS for Identification of Small Molecule Inhibitors of Huntingtin Promoter Activity; settings: HEK293 HTT promoter firefly luciferase reporter, 24 h; series mostly up to 57.5 µM; activity change, negative = inhibition: at the top concentration; further: nearly all actives have a fitted effect of over 65% in size
How it was run: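 Activity normalized between vehicle control (0%) and zero RLU (-100%) from firefly luminescence (Dual-Glo). Compounds, up to 57.5 uM final, incubated 24 h at 37C on HEK293 reporter cells plated 24 h earlier.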
Potency means the concentration at half of the fitted maximal effect; tags describe the fitted curve by direction and shape.

Potency, inconclusive:
O=C(Nc1ccc(Oc2ccccc2)cc1)C1CCN(S(=O)(=O)c2ccccc2)CC1 8.49 µM [inhibitor, partial curve]
O=C(NCc1ccccc1)c1ccc(CSc2nc3cccnc3n2Cc2ccccc2)cc1 30.1 µM [inhibitor, partial curve]
Cc1ccc(Cn2c(SCc3ccc(C(=O)NC4CCCC4)cc3)nc3ccncc32)cc1 16.9 µM [inhibitor, partial curve]
COc1ccc(-c2onc(C)c2C)cc1S(=O)(=O)N1CCc2ccccc21 21.3 µM [inhibitor, single point]
CC(C)(C)C(=O)NCCc1nc2ccccc2n1CCCCOc1ccccc1 21.3 µM [inhibitor, partial curve]
O=C(c1ccc2c(c1)CCN2S(=O)(=O)c1ccc(Cl)cc1)N1CCN(c2ccc(F)cc2)CC1 16.9 µM [inhibitor, partial curve]
Cc1cc(NC(=O)CN(C)S(=O)(=O)c2ccc3c(c2)CCC(=O)N3)ccc1Br 15.1 µM [inhibitor, partial curve]
CCN(c1ccccc1)S(=O)(=O)c1c(-c2ccc(C)cc2)csc1C(=O)OC 23.9 µM [inhibitor, partial curve]
CCOC(=O)c1cnc2ccc(OCC)cc2c1Nc1ccc(OCc2ccccc2Cl)cc1 23.9 µM [inhibitor, single point]
COc1cccc(CNC(=O)c2ccc(-c3nc(COc4ccccc4)c(C)o3)cc2)c1 21.3 µM [inhibitor, partial curve]
CCCCCN1C(C(=O)c2ccccc2)=C(OC(=O)CC)c2ccccc2S1(=O)=O 3.79 µM [inhibitor, full curve]
COc1ccc(NC(=O)c2ccc(-c3nc(CSc4ccccc4)c(C)o3)cc2)c(OC)c1 30.1 µM [inhibitor, single point]
Cc1ccc(-c2nc3sc(CCNS(=O)(=O)c4cc(F)ccc4F)c(C)n3n2)cc1 19 µM [inhibitor, partial curve]
Cc1ccc(CNC(=O)c2c(Nc3ccccc3C)sc(C(=O)c3ccc(F)cc3)c2N)cc1 5.36 µM [inhibitor, partial curve]
O=C(c1cccs1)N(Cc1cccnc1)c1nc2ccc(F)cc2s1 21.3 µM [inhibitor, partial curve]
COc1ccc(C(=O)NCC(c2cccnc2)N2CCc3ccccc32)cc1 (centres undefined) 23.9 µM [inhibitor, partial curve]
COC(=O)C1=C(CS(=O)(=O)c2ccc(C)cc2C)NC(=O)NC1c1ccc(C)cc1 (centres undefined) 15.1 µM [inhibitor, partial curve]
CCOc1ccc(-n2ccnc2SCC(=O)Nc2cc(C)ccc2C)cc1 23.9 µM [inhibitor, single point]
COc1ccccc1NC(=O)CSc1nnc2c(n1)[nH]c1ccccc12 9.53 µM [inhibitor, partial curve, poor fit]
COc1ccc(NC(=O)C(=O)c2cc(C)n(-c3ccc(C)cc3)c2C)cc1Cl 19 µM [inhibitor, partial curve]
CCOc1ccc(C(=O)NCC(c2ccc3c(c2)OCO3)N2CCN(c3ccccc3F)CC2)cc1 (centres undefined) 15.1 µM [inhibitor, partial curve, poor fit]
Cc1ccc(Cl)cc1-n1ncc2c(NCCCc3ccccc3)ncnc21 21.3 µM [inhibitor, partial curve]

Activity change, negative = inhibition, inactive:
COc1ccccc1C1Nc2c(sc3nc(C)cc(C)c23)C(=O)N1c1ccccc1 (centres undefined) 25.8%
CCCCC(=O)Nc1cccc(-c2nc3ccccc3s2)c1 36.5%
Cc1cccc(N2CCN(C(=O)c3ccc(NC(=O)c4nsc5ccccc45)cc3)CC2C)c1 (centres undefined) -63.2%
CCOc1ccc(Nc2ncnc3c2nc2n3CCCCC2)cc1 -15.8%
Cc1csc2nc(COC(=O)c3ccccc3NC(=O)c3ccccc3Cl)cc(=O)n12 1.39%
Cn1c(=O)n(C)c2cc(NS(=O)(=O)c3ccc(F)cc3)ccc21 38.7%
COc1ccc(C(C)n2c(C)c3c(C)nnc(C)c3c2C)cc1 (centres undefined) -20.6%

Reference: PubChem BioAssay AID1508621 (National Center for Advancing Translational Sciences (NCATS), 2021)
